In the BET-seq Pho4 binding data (Le et al. 2018):
Some of the results follow. Values were computed here from the reads of four pooled replicates and scatter widely.

target: T1, Pho4 (S. cerevisiae) (UniProt P07270); experiment: relative binding free energy (BET-seq); higher = weaker binding; conditions: reference: library average
T1 sequence: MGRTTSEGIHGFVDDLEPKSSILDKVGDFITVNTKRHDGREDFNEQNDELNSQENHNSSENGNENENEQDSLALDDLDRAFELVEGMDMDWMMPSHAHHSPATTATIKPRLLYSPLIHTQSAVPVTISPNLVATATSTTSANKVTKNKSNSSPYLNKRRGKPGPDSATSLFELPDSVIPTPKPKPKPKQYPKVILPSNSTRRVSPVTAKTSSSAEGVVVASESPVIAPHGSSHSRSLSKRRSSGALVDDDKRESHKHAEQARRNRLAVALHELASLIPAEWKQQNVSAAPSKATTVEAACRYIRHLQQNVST

Sequence | relative binding free energy
TGTGACACGTGTTAGT | -0.08 kcal/mol
TTATACACGTGAGTTG | 0.05 kcal/mol
TGATGCACGTGCATGG | 0.01 kcal/mol
CATGTCACGTGGTGCG | 0.11 kcal/mol
TCATTCACGTGTGTGC | 0.32 kcal/mol
TATCTCACGTGGGGCT | 0.11 kcal/mol
TTATGCACGTGAAATG | 0.16 kcal/mol
GGGGCCACGTGCTGGG | -0.09 kcal/mol
TAGTCCACGTGGATGG | 0 kcal/mol
GGTGGCACGTGGGGCT | -0.12 kcal/mol
GTGTTCACGTGAAGGG | 0.43 kcal/mol
TTGGGCACGTGGTCCG | -0.23 kcal/mol
TAGGACACGTGTTTGA | -0.01 kcal/mol
TTTCTCACGTGTTCTT | 0.37 kcal/mol
GCCGGCACGTGGGTGT | -0.3 kcal/mol
AGGGTCACGTGTTGTC | 0.12 kcal/mol
TTTTTCACGTGATGCG | 0.28 kcal/mol
AAGGGCACGTGGGGTC | -0.27 kcal/mol
TTTGGCACGTGCATGA | -0.34 kcal/mol
GTTAACACGTGTGATG | 0.02 kcal/mol
TTAGGCACGTGTTGAG | -0.09 kcal/mol
TATGTCACGTGCGAGG | -0.02 kcal/mol
AGGGTCACGTGTGGAC | 0.2 kcal/mol

Sequence | relative binding free energy
TGTGTCACGTGGCTTC | 0.07 kcal/mol
TTCTTCACGTGATGGT | 0.31 kcal/mol
GATGTCACGTGGCGTA | 0.06 kcal/mol
ATCTTCACGTGTGGTA | 0.3 kcal/mol
GGACGCACGTGAGAGG | 0.09 kcal/mol
GTTGGCACGTGACGGG | 0.05 kcal/mol
TAGTGCACGTGTTTCG | -0.05 kcal/mol
TTAAACACGTGAGTTG | 0.29 kcal/mol
TTGGCCACGTGGTGTT | -0.1 kcal/mol
TAGGTCACGTGGGCCT | 0.01 kcal/mol
ATGGCCACGTGCGTTG | -0.08 kcal/mol
GTAAGCACGTGCTGGT | -0.11 kcal/mol
GATTACACGTGAGGTT | 0.36 kcal/mol
GTTCGCACGTGGGTCA | -0.17 kcal/mol
TGATGCACGTGTGCTG | 0.11 kcal/mol
TGAATCACGTGTGGTG | 0.17 kcal/mol
GTAAACACGTGGTGGA | 0.08 kcal/mol
AGTTTCACGTGATCGT | 0.29 kcal/mol
GCGATCACGTGTGGAT | 0.25 kcal/mol
GATGGCACGTGAGATG | 0.32 kcal/mol
TTTATCACGTGTAGCA | 0.17 kcal/mol
TAACTCACGTGTATTT | 0.29 kcal/mol
CATGTCACGTGAGGGT | 0.22 kcal/mol

Sequence | relative binding free energy
TGACGCACGTGAATGT | 0.28 kcal/mol
AGGCGCACGTGTGTGA | 0.01 kcal/mol
ATAGCCACGTGGCGGG | -0.22 kcal/mol
TGGGACACGTGATAGT | 0 kcal/mol
TGTCTCACGTGCTGGT | 0.11 kcal/mol
AGGGGCACGTGCAATG | -0.2 kcal/mol
GTGATCACGTGTTGAG | 0.02 kcal/mol
TTTGACACGTGTATTA | 0.07 kcal/mol
TTAGACACGTGGGGGT | -0.17 kcal/mol
ACGATCACGTGTGTGG | 0.2 kcal/mol
GTAGACACGTGCAGGT | -0.03 kcal/mol
GGAATCACGTGTGTCG | 0.18 kcal/mol
TGCTACACGTGTTTTT | 0.25 kcal/mol
ATAGACACGTGGGGGT | -0.05 kcal/mol
TGCTTCACGTGGTGCT | 0.31 kcal/mol
TATGTCACGTGATAAT | 0.18 kcal/mol
GGGCTCACGTGTGGGT | 0.26 kcal/mol
AATTGCACGTGTGGGT | 0.1 kcal/mol
TGACGCACGTGTGGCT | -0.04 kcal/mol
TTAGTCACGTGAAGAG | 0.35 kcal/mol
TTGAGCACGTGTTTGA | -0.05 kcal/mol
GCGGTCACGTGAATTG | 0.36 kcal/mol
AGAGGCACGTGACAGG | -0.09 kcal/mol

Sequence | relative binding free energy
TTGTTCACGTGTGGCA | 0.34 kcal/mol
TGGTGCACGTGGGTGC | -0.14 kcal/mol
GATTTCACGTGAGGAT | 0.51 kcal/mol
CGTGGCACGTGTAAGC | 0.14 kcal/mol
TGTAGCACGTGAGGCT | 0.04 kcal/mol
TGTAACACGTGATGGA | 0.04 kcal/mol
TGGGGCACGTGGAAGT | -0.06 kcal/mol
ATGAGCACGTGTGTCA | 0 kcal/mol
ATGGTCACGTGGTTTT | 0.21 kcal/mol
AGTGTCACGTGGTTAA | -0.15 kcal/mol
GTGGTCACGTGGGGCG | 0.09 kcal/mol
CGTCTCACGTGGGGTT | -0.07 kcal/mol
ACTGGCACGTGGGGAA | -0.14 kcal/mol
GAATGCACGTGGCTGG | -0.03 kcal/mol
AACGGCACGTGTTTGA | -0.05 kcal/mol
AGAGGCACGTGCGGGG | -0.22 kcal/mol
TTTTGCACGTGTTTCG | 0.05 kcal/mol
TAGATCACGTGATAAT | 0.24 kcal/mol
TTCCTCACGTGGGGGT | -0.02 kcal/mol
TTTTTCACGTGGACCG | 0.22 kcal/mol
TTGTACACGTGGGGGA | -0.01 kcal/mol
AGGGGCACGTGGTAGC | -0.2 kcal/mol
GAGTGCACGTGATCTG | 0.12 kcal/mol

Sequence | relative binding free energy
GAATTCACGTGGTCAG | 0.36 kcal/mol
GTAATCACGTGGTCTT | 0.14 kcal/mol
TTTGTCACGTGTTATG | 0.06 kcal/mol
GGCGGCACGTGCTTGG | -0.21 kcal/mol
ATTACCACGTGTGGGT | -0.04 kcal/mol
TTAGACACGTGGTTAC | 0.01 kcal/mol
TGTGTCACGTGGAGTC | 0.12 kcal/mol
ATTATCACGTGAGTCT | 0.41 kcal/mol
GTCTGCACGTGATGAT | 0.16 kcal/mol
TAGGTCACGTGAAGCG | 0.22 kcal/mol
CGCGGCACGTGGGGGG | -0.23 kcal/mol
TGGTTCACGTGCGAAA | 0.26 kcal/mol
TTTTTCACGTGGTTTA | 0.26 kcal/mol
AGAATCACGTGGGAAG | 0.22 kcal/mol
AGGGACACGTGGAGCT | -0.05 kcal/mol
AATGACACGTGTTTGG | 0.06 kcal/mol
AGGGGCACGTGTGCAT | -0.16 kcal/mol
CATATCACGTGTGTGG | -0.08 kcal/mol
ACGGGCACGTGTGTAG | -0.13 kcal/mol
GTTATCACGTGTTCTT | 0.23 kcal/mol
TAGGACACGTGCATGT | 0.06 kcal/mol
TATTACACGTGTGGTG | 0.04 kcal/mol
TATTTCACGTGCTCGT | 0.17 kcal/mol
